# Results as given in the supplement of paper PMC8728848.
# The other results are listed elsewhere or left out.
# B1: PX9937F-bfa-516-16-516 (Bacteroides fragilis) (protein)
# chain: LDIDPTSSIADSNYWKTEAQFSTFNVGLHALLRECSFNFFLLGEPRADIYGDVPFGGEATQGMERLPFNTINKENTGISNFAGMYKVINQINLMIAKTKETTVLSEAGKNYYLGEAYGMRAYLYFHLLRSWGDVILYLDYTNGASLDLSNLSKAASPAEEVMKQIKEDITASEKGFGSDYSFKYGRYYWSMAATQMLKGEVYLWSGRQMGGGTADYTTAKTALQSIVSNANVSLQDDFSKVFAYNNKDNSEIIFSIRNAKDEYNMWDDRFRQNLVPQQAYMTSTYCNKEGVSFKDLPEGQLNGLIRLQIRYDLYNKAFRDGDTRKDASMTAVYQKQQDGTVKYIAPFCNKYQGVLLDGASQRSFLNDYPIYRYADCLLLLAEAKALLGEDPTAEINQVRERAYGKEFFEANKATLAYPNDKGDFYTDNKYMSGDEDPLEAILKERMREFMFEGKRWYDLRLLGADYVTKRTSAVATRLLWPINESVLTDNPALKQTPGYQN
# What was measured:
# Experiment in all cases: glycan array binding signal (z-score within array); higher = stronger binding
# Conditions in all cases: glycan notation: IUPAC condensed, linker removed
# [1] = biological target: Neu5Ac(a2-3)Gal(b1-3)GlcNAc(b1-2)Man(a1-3)[GlcNAc(b1-4)][Neu5Ac(a2-3)Gal(b1-3)GlcNAc(b1-2)Man(a1-6)]Man(b1-4)GlcNAc(b1-4)GlcNAc
# In short: (§1)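 The binding signal is a Z-score computed within each array and averaged over linkers. Arrays of the same protein sequence at different concentrations or buffers were also averaged together. Data originate from 3228 arrays in the Consortium for Functional Glycomics database, kept only where the protein sequence was available.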
# [2] = biological target: Neu5Ac(a2-3)Gal(b1-3)GlcNAc(b1-2)Man(a1-3)[Neu5Ac(a2-3)Gal(b1-3)GlcNAc(b1-2)Man(a1-6)]Man(b1-4)GlcNAc(b1-4)GlcNAc
# In short: as §1
# [3] = biological target: Neu5Ac(a2-3)Gal(b1-3)GlcNAc(b1-3)Gal(b1-3)GlcNAc
# In short: as §1
# [4] = biological target: Neu5Ac(a2-3)Gal(b1-3)GlcNAc(b1-3)Gal(b1-4)GlcNAc
# In short: as §1
# [5] = biological target: Neu5Ac(a2-3)Gal(b1-3)GlcNAc(b1-3)GalNAc
# In short: as §1
# [6] = biological target: Neu5Ac(a2-3)Gal(b1-3)GlcNAc(b1-4)Gal(b1-4)Glc
# In short: as §1
# [7] = biological target: Neu5Ac(a2-3)Gal(b1-3)GlcNAc(b1-6)GalNAc
# In short: as §1
# [8] = biological target: Neu5Ac(a2-3)Gal(b1-3)GlcNAc6S
# In short: as §1
# [9] = biological target: Neu5Ac(a2-3)Gal(b1-3)[Fuc(a1-4)]GlcNAc
# In short: as §1
# [10] = biological target: Neu5Ac(a2-3)Gal(b1-3)[Fuc(a1-4)]GlcNAc(b1-3)Gal(b1-3)[Fuc(a1-4)]GlcNAc
# In short: as §1
# [11] = biological target: Neu5Ac(a2-3)Gal(b1-3)[Fuc(a1-4)]GlcNAc(b1-3)Gal(b1-4)[Fuc(a1-3)]GlcNAc
# In short: as §1
# [12] = biological target: Neu5Ac(a2-3)Gal(b1-3)[GlcNAc(b1-6)]GalNAc
# In short: as §1
# [13] = biological target: Neu5Ac(a2-3)Gal(b1-3)[Neu5Ac(a2-6)]GalNAc
# In short: as §1
# [14] = biological target: Neu5Ac(a2-3)Gal(b1-3)[Neu5Ac(a2-6)]GlcNAc(b1-3)[Fuc(a1-3)[Gal(b1-4)]GlcNAc(b1-6)]Gal(b1-4)Glc
# In short: as §1
# [15] = biological target: Neu5Ac(a2-3)Gal(b1-3)]Neu5Ac(a2-3)Gal(b1-4)]GlcNAc
# In short: as §1
# [16] = biological target: Neu5Ac(a2-3)Gal(b1-4)Glc
# In short: as §1
# [17] = biological target: Neu5Ac(a2-3)Gal(b1-4)GlcNAc
# In short: as §1
# [18] = biological target: Neu5Ac(a2-3)Gal(b1-4)GlcNAc(b1-2)Man
# In short: as §1
# [19] = biological target: Neu5Ac(a2-3)Gal(b1-4)GlcNAc(b1-2)Man(a1-3)[GlcNAc(b1-4)][Neu5Ac(a2-3)Gal(b1-4)GlcNAc(b1-2)Man(a1-6)]Man(b1-4)GlcNAc(b1-4)GlcNAc
# In short: as §1
# [20] = biological target: Neu5Ac(a2-3)Gal(b1-4)GlcNAc(b1-2)Man(a1-3)[Neu5Ac(a2-3)Gal(b1-4)GlcNAc(b1-2)Man(a1-6)]Man(b1-4)GlcNAc(b1-4)GlcNAc
# In short: as §1
# [21] = biological target: Neu5Ac(a2-3)Gal(b1-4)GlcNAc(b1-2)Man(a1-3)[Neu5Ac(a2-3)Gal(b1-4)GlcNAc(b1-2)Man(a1-6)]Man(b1-4)GlcNAc(b1-4)[Fuc(a1-6)]GlcNAc
# In short: as §1
# [22] = biological target: Neu5Ac(a2-3)Gal(b1-4)GlcNAc(b1-2)Man(a1-3)[Neu5Ac(a2-6)Gal(b1-4)GlcNAc(b1-2)Man(a1-6)]Man(b1-4)GlcNAc(b1-4)GlcNAc
# In short: as §1
# [23] = biological target: Neu5Ac(a2-3)Gal(b1-4)GlcNAc(b1-2)[Neu5Ac(a2-3)Gal(b1-4)GlcNAc(b1-4)]Man(a1-3)[GlcNAc(b1-4)][Neu5Ac(a2-3)Gal(b1-4)GlcNAc(b1-2)[Neu5Ac(a2-3)Gal(b1-4)GlcNAc(b1-6)]Man(a1-6)]Man(b1-4)GlcNAc(b1-4)GlcNAc
# In short: as §1
# [24] = biological target: Neu5Ac(a2-3)Gal(b1-4)GlcNAc(b1-2)[Neu5Ac(a2-3)Gal(b1-4)GlcNAc(b1-4)]Man(a1-3)[GlcNAc(b1-4)][Neu5Ac(a2-3)Gal(b1-4)GlcNAc(b1-4)Man(a1-6)]Man(b1-4)GlcNAc(b1-4)GlcNAc
# In short: as §1
# [25] = biological target: Neu5Ac(a2-3)Gal(b1-4)GlcNAc(b1-2)[Neu5Ac(a2-3)Gal(b1-4)GlcNAc(b1-6)]Man(a1-6)[Neu5Ac(a2-3)Gal(b1-4)GlcNAc(b1-2)Man(a1-3)]Man(b1-4)GlcNAc(b1-4)GlcNAc
# In short: as §1
# [26] = biological target: Neu5Ac(a2-3)Gal(b1-4)GlcNAc(b1-2)[Neu5Ac(a2-3)Gal(b1-4)GlcNAc(b1-6)]Man(a1-6)[Neu5Ac(a2-3)Gal(b1-4)GlcNAc(b1-2)Man(a1-3)][GlcNAc(b1-4)]Man(b1-4)GlcNAc(b1-4)GlcNAc
# In short: as §1
# [27] = biological target: Neu5Ac(a2-3)Gal(b1-4)GlcNAc(b1-3)Gal
# In short: as §1
# [28] = biological target: Neu5Ac(a2-3)Gal(b1-4)GlcNAc(b1-3)Gal(b1-3)GlcNAc
# In short: as §1
# [29] = biological target: Neu5Ac(a2-3)Gal(b1-4)GlcNAc(b1-3)Gal(b1-4)GlcNAc
# In short: as §1
# [30] = biological target: Neu5Ac(a2-3)Gal(b1-4)GlcNAc(b1-3)Gal(b1-4)GlcNAc(b1-2)Man(a1-3)[Neu5Ac(a2-3)Gal(b1-4)GlcNAc(b1-3)Gal(b1-4)GlcNAc(b1-2)Man(a1-6)]Man(b1-4)GlcNAc(b1-4)GlcNAc
# In short: as §1
# [31] = biological target: Neu5Ac(a2-3)Gal(b1-4)GlcNAc(b1-3)Gal(b1-4)GlcNAc(b1-3)Gal(b1-4)GlcNAc
# In short: as §1
# [32] = biological target: Neu5Ac(a2-3)Gal(b1-4)GlcNAc(b1-3)Gal(b1-4)GlcNAc(b1-3)Gal(b1-4)GlcNAc(b1-2)Man(a1-3)[Neu5Ac(a2-3)Gal(b1-4)GlcNAc(b1-3)Gal(b1-4)GlcNAc(b1-3)Gal(b1-4)GlcNAc(b1-2)Man(a1-6)]GalNAc
# In short: as §1
# [33] = biological target: Neu5Ac(a2-3)Gal(b1-4)GlcNAc(b1-3)Gal(b1-4)GlcNAc(b1-3)GalNAc
# In short: as §1
# [34] = biological target: Neu5Ac(a2-3)Gal(b1-4)GlcNAc(b1-3)Gal(b1-4)GlcNAc(b1-3)[Neu5Ac(a2-3)Gal(b1-4)GlcNAc(b1-3)Gal(b1-4)GlcNAc(b1-6)]GalNAc
# In short: as §1
# [35] = biological target: Neu5Ac(a2-3)Gal(b1-4)GlcNAc(b1-3)Gal(b1-4)GlcNAc(b1-6)[Gal(b1-3)]GalNAc
# In short: as §1
# [36] = biological target: Neu5Ac(a2-3)Gal(b1-4)GlcNAc(b1-3)Gal(b1-4)[Fuc(a1-3)]GlcNAc
# In short: as §1
# [37] = biological target: Neu5Ac(a2-3)Gal(b1-4)GlcNAc(b1-3)GalNAc
# In short: as §1
# [38] = biological target: Neu5Ac(a2-3)Gal(b1-4)GlcNAc(b1-3)[Neu5Ac(a2-3)Gal(b1-4)GlcNAc(b1-6)]GalNAc
# In short: as §1
binder,measurement,setting,value
B1,glycan array binding signal (z-score),[1],-0.018
same,glycan array binding signal (z-score),[2],-0.063
same,glycan array binding signal (z-score),[3],-0.249
same,glycan array binding signal (z-score),[4],-0.213
same,glycan array binding signal (z-score),[5],0.059
same,glycan array binding signal (z-score),[6],-0.262
same,glycan array binding signal (z-score),[7],-0.165
same,glycan array binding signal (z-score),[8],-0.065
same,glycan array binding signal (z-score),[9],-0.201
same,glycan array binding signal (z-score),[10],0.008
same,glycan array binding signal (z-score),[11],-0.15
same,glycan array binding signal (z-score),[12],-0.036
same,glycan array binding signal (z-score),[13],-0.172
same,glycan array binding signal (z-score),[14],-0.295
same,glycan array binding signal (z-score),[15],-0.301
same,glycan array binding signal (z-score),[16],-0.325
same,glycan array binding signal (z-score),[17],-0.262
same,glycan array binding signal (z-score),[18],0.087
same,glycan array binding signal (z-score),[19],-0.331
same,glycan array binding signal (z-score),[20],-0.233
same,glycan array binding signal (z-score),[21],-0.216
same,glycan array binding signal (z-score),[22],-0.011
same,glycan array binding signal (z-score),[23],-0.243
same,glycan array binding signal (z-score),[24],-0.258
same,glycan array binding signal (z-score),[25],-0.154
same,glycan array binding signal (z-score),[26],-0.109
same,glycan array binding signal (z-score),[27],-0.179
same,glycan array binding signal (z-score),[28],-0.33
same,glycan array binding signal (z-score),[29],-0.269
same,glycan array binding signal (z-score),[30],0.035
same,glycan array binding signal (z-score),[31],-0.282
same,glycan array binding signal (z-score),[32],0.224
same,glycan array binding signal (z-score),[33],-0.145
same,glycan array binding signal (z-score),[34],-0.339
same,glycan array binding signal (z-score),[35],-0.252
same,glycan array binding signal (z-score),[36],-0.237
same,glycan array binding signal (z-score),[37],-0.231
same,glycan array binding signal (z-score),[38],-0.202
